# From the supplement of paper PMC8728848
# This is one part of the list.
# B1: B725 (Bifidobacterium sp) (protein)
# chain: MNNTTRAVIATAAIGALLIPLAGCGNTTTSSGKTELTVWSWDASIDRAAKSFMKANPDITVKVSNVGSTEETYTALNNAAQAGSGLPDVTLIEYLAIPQFVHSDTLMDLSKVYNTAKLKDTFTPGTWNSVNINGGLYAMPADSGPMAYFYDKDVFDKAGISEPPTTWDEFYEDAKKIRATGSYITSDSGDAGLFNAMMWAMGGHAYKLNDDKLTINIAKDKGAQRFMDLWQKMRDEDLIDVHTKTWTDDWMKSLGDGSIASLISGAWMANNLLQGVPQATGKFRVALLPTIDGTPINGEYGGSGLAITKKIPDGKLDAAKKFVEYVTTNDEGIDARVSNGSFPATTKTLNQKDFLAKTTLRNTDGSDNEFFGGQKYNEIFSQAAKDVTGKWEFLPFEPYARSVYNDNMGSFFAGKTSFRTAADNWQKALKDYAKDQGFTVQ
# Columns and labels:
# Test in all cases: glycan array binding signal (z-score within array); higher = stronger binding
# Conditions in all cases: glycan notation: IUPAC condensed, linker removed
# Gal6S(b1-4)Glc6S = target: Gal6S(b1-4)Glc6S
# How it was run: (§1)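 Negative Z-scores can be read as non-binding. The Z-score is calculated within each array and then averaged across arrays of one protein sequence at different concentrations or buffers and across linkers. Arrays, 3228 in all, were curated from the Consortium for Functional Glycomics database and kept only where the protein sequence was available.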
# Gal6S(b1-4)GlcNAc = target: Gal6S(b1-4)GlcNAc
# How it was run: as §1
# Gal6S(b1-4)GlcNAc6S = target: Gal6S(b1-4)GlcNAc6S
# How it was run: as §1
# GalNAc(a1-3)Gal = target: GalNAc(a1-3)Gal
# How it was run: as §1
# GalNAc(a1-3)GalNAc = target: GalNAc(a1-3)GalNAc
# How it was run: as §1
# [1] = target: GalNAc(a1-3)GalNAc(b1-3)Gal(a1-4)Gal(b1-4)Glc
# How it was run: as §1
# [2] = target: GalNAc(a1-3)GalNAc(b1-3)Gal(a1-4)Gal(b1-4)GlcNAc
# How it was run: as §1
# GalNAc(b1-3)Gal = target: GalNAc(b1-3)Gal
# How it was run: as §1
# [3] = target: GalNAc(b1-3)Gal(a1-4)Gal(b1-4)GlcNAc
# How it was run: as §1
# [4] = target: GalNAc(b1-3)Gal(a1-4)Gal(b1-4)GlcNAc(b1-3)Gal(b1-4)Glc
# How it was run: as §1
# [5] = target: GalNAc(b1-3)Gal(a1-6)Gal(b1-4)Glc
# How it was run: as §1
# GalNAc(b1-3)GalNAc = target: GalNAc(b1-3)GalNAc
# How it was run: as §1
# GalNAc(b1-3)GlcNAc = target: GalNAc(b1-3)GlcNAc
# How it was run: as §1
# GalNAc(b1-4)Gal(b1-4)Glc = target: GalNAc(b1-4)Gal(b1-4)Glc
# How it was run: as §1
# GalNAc(b1-4)GlcNAc = target: GalNAc(b1-4)GlcNAc
# How it was run: as §1
# [6] = target: GalNAc(b1-4)GlcNAc(b1-2)Man
# How it was run: as §1
# [7] = target: GalNAc(b1-4)GlcNAc(b1-2)Man(a1-3)[GalNAc(b1-4)GlcNAc(b1-2)Man(a1-6)]Man(b1-4)GlcNAc(b1-4)GlcNAc
# How it was run: as §1
# [8] = target: GalNAc(b1-4)GlcNAc(b1-3)GalNAc(b1-4)GlcNAc
# How it was run: as §1
# GalNAc(b1-4)GlcNAc6S = target: GalNAc(b1-4)GlcNAc6S
# How it was run: as §1
# GalNAc(b1-6)GalNAc = target: GalNAc(b1-6)GalNAc
# How it was run: as §1
# GalNAc3S(b1-4)GlcNAc = target: GalNAc3S(b1-4)GlcNAc
# How it was run: as §1
# GalNAc3S(b1-4)GlcNAc3S = target: GalNAc3S(b1-4)GlcNAc3S
# How it was run: as §1
# [9] = target: GalNAc3S(b1-4)[Fuc(a1-3)]GlcNAc
# How it was run: as §1
# GalNAc4S6S(b1-4)GlcNAc = target: GalNAc4S6S(b1-4)GlcNAc
# How it was run: as §1
# GalNAc6S(b1-4)GlcNAc = target: GalNAc6S(b1-4)GlcNAc
# How it was run: as §1
# Glc(a1-4)Glc = target: Glc(a1-4)Glc
# How it was run: as §1
# [10] = target: Glc(a1-4)Glc(a1-4)Glc(a1-4)Glc
# How it was run: as §1
# Glc(a1-6)Glc(a1-6)Glc = target: Glc(a1-6)Glc(a1-6)Glc
# How it was run: as §1
# [11] = target: Glc(a1-6)Glc(a1-6)Glc(a1-6)Glc
# How it was run: as §1
# Glc(b1-4)Glc = target: Glc(b1-4)Glc
# How it was run: as §1
# Glc(b1-6)Glc = target: Glc(b1-6)Glc
# How it was run: as §1
# GlcA(b1-3)Gal = target: GlcA(b1-3)Gal
# How it was run: as §1
# GlcA(b1-3)GlcNAc = target: GlcA(b1-3)GlcNAc
# How it was run: as §1
# GlcA(b1-6)Gal = target: GlcA(b1-6)Gal
# How it was run: as §1
# [12] = target: GlcA3S(b1-3)Gal(b1-4)GlcNAc(b1-2)Man
# How it was run: as §1
# [13] = target: GlcA3S(b1-3)Gal(b1-4)GlcNAc(b1-3)Gal(b1-4)Glc
# How it was run: as §1
# [14] = target: GlcNAc(a1-3)Gal(b1-4)GlcNAc
# How it was run: as §1
binder,measurement,setting,value
B1,glycan array binding signal (z-score),Gal6S(b1-4)Glc6S,-0.208
same,glycan array binding signal (z-score),Gal6S(b1-4)GlcNAc,-0.233
same,glycan array binding signal (z-score),Gal6S(b1-4)GlcNAc6S,-0.219
same,glycan array binding signal (z-score),GalNAc(a1-3)Gal,-0.215
same,glycan array binding signal (z-score),GalNAc(a1-3)GalNAc,-0.231
same,glycan array binding signal (z-score),[1],-0.209
same,glycan array binding signal (z-score),[2],-0.231
same,glycan array binding signal (z-score),GalNAc(b1-3)Gal,-0.228
same,glycan array binding signal (z-score),[3],-0.212
same,glycan array binding signal (z-score),[4],-0.221
same,glycan array binding signal (z-score),[5],-0.206
same,glycan array binding signal (z-score),GalNAc(b1-3)GalNAc,-0.204
same,glycan array binding signal (z-score),GalNAc(b1-3)GlcNAc,-0.21
same,glycan array binding signal (z-score),GalNAc(b1-4)Gal(b1-4)Glc,-0.207
same,glycan array binding signal (z-score),GalNAc(b1-4)GlcNAc,-0.219
same,glycan array binding signal (z-score),[6],-0.236
same,glycan array binding signal (z-score),[7],-0.05
same,glycan array binding signal (z-score),[8],-0.211
same,glycan array binding signal (z-score),GalNAc(b1-4)GlcNAc6S,-0.217
same,glycan array binding signal (z-score),GalNAc(b1-6)GalNAc,-0.233
same,glycan array binding signal (z-score),GalNAc3S(b1-4)GlcNAc,-0.222
same,glycan array binding signal (z-score),GalNAc3S(b1-4)GlcNAc3S,-0.219
same,glycan array binding signal (z-score),[9],-0.229
same,glycan array binding signal (z-score),GalNAc4S6S(b1-4)GlcNAc,-0.219
same,glycan array binding signal (z-score),GalNAc6S(b1-4)GlcNAc,-0.224
same,glycan array binding signal (z-score),Glc(a1-4)Glc,-0.211
same,glycan array binding signal (z-score),[10],-0.214
same,glycan array binding signal (z-score),Glc(a1-6)Glc(a1-6)Glc,-0.218
same,glycan array binding signal (z-score),[11],-0.205
same,glycan array binding signal (z-score),Glc(b1-4)Glc,-0.191
same,glycan array binding signal (z-score),Glc(b1-6)Glc,-0.219
same,glycan array binding signal (z-score),GlcA(b1-3)Gal,-0.212
same,glycan array binding signal (z-score),GlcA(b1-3)GlcNAc,-0.228
same,glycan array binding signal (z-score),GlcA(b1-6)Gal,-0.219
same,glycan array binding signal (z-score),[12],-0.223
same,glycan array binding signal (z-score),[13],-0.216
same,glycan array binding signal (z-score),[14],-0.234
